# According to PubChem BioAssay (Tox21):
# Values joined by “and” are separate entries in the source; they are usually repeats but may differ in a detail not shown here. Equal entries are not always repeated. This list was built around the results that the source calls inconclusive (neither active nor inactive); the mix of calls is not that of the screen. A potency beside an inconclusive call is a rough fit, not a confirmed value. Active and inactive are the calls of the source. Unless noted, calls come from the whole dose curve; as a rule, active = well fitted curve in the direction sought with a large enough effect in the repeat runs; inconclusive = weak or mixed curves; inactive = no such curve, though single readings can be large; an effect the other way counts as inactive or inconclusive.
# Experiments:
# [1] = biological target: Aryl hydrocarbon receptor (Homo sapiens) (UniProt P35869); assay: qHTS assay to identify small molecule that activate the aryl hydrocarbon receptor (AhR) signaling pathway (AID 743085); details: HepG2 AhR-luc (HG2L7.5c1), luciferase, 24 h; series mostly up to 70.3 µM; note: nearly all actives have a fitted effect of over 15% in size;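 for activation: HG2L7.5c1 human HepG2 liver cells with stably integrated DRE-driven firefly reporter; % is set by controls: 0 for no effect and ±100 for the full control effect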
# Procedure, shortened: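 Steps: seed HepG2-AhR-luc cells; allow 5 h at 37C; pin-transfer test compound or vehicle; incubate 24 h at 37C; add viability dye (30 min, 37C) and read fluorescence; add luciferase substrate (30 min, RT) and read luminescence.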
# [2] = biological target: Peroxisome proliferator-activated receptor gamma (Homo sapiens) (UniProt P37231); assay: qHTS assay to identify small molecule antagonists of the peroxisome proliferator-activated receptor gamma (PPARg) signaling pathway (AID 743191; calls by dose curve; note: nearly all actives have a fitted effect of over 30% in size; for ratio activity, negative = inhibition: % is set by controls: 0 for no effect and ±100 for the full control effect); details: HEK293H PPARg-UAS-bla, beta-lactamase ratio, antagonist, 17 h
# Procedure, shortened: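 GeneBLAzer PPARg UAS-bla HEK293H cells carrying a UAS-driven beta-lactamase reporter were plated at 3000 cells/well, preincubated 5 h at 37C, then given compound for 17 h at 37C; LiveBLAzer B/G FRET substrate was read after 1 h at room temperature.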
# [3] = qHTS assay for small molecule agonists of the antioxidant response element (ARE) signaling pathway (AID 743202; active = well fitted activation curve with a large enough effect in the signal ratio in the repeat runs, not every such curve was filed as active; inconclusive = weak or mixed curves, or effect the other way; inactive = no such curve, though single readings can be large or run the other way; the % refers to the signal ratio; for activation: % is set by controls: 0 for no effect and ±100 for the full control effect); details: HepG2 ARE-bla reporter, beta-lactamase FRET, 16 h; activation: at 73.3 µM (top of the series) unless noted
# Procedure, shortened: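 Steps: seed ARE-bla HepG2 cells (2,000/well); incubate 5 h at 37 C; add compounds by pin tool; incubate 16 h at 37 C; add FRET substrate; read fluorescence after 2 h at RT.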
# [4] = qHTS assay to identify small molecule antagonists of the peroxisome proliferator-activated receptor gamma (PPARg) signaling pathway - cell viability counter screen (AID 743194); details: PPARg-bla HEK293H viability, CellTiter-Glo luminescence, 17 h, co-treated with 50 nM rosiglitazone; activity change, negative = cytotoxicity: at 62.6 µM (top of the series) unless noted; note: nearly all actives have a fitted effect of over 55% in size
# Procedure, shortened: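 PPARg-UAS-bla HEK293H cells were plated, rested 5 h at 37 C, then treated with compounds plus rosiglitazone (50 nM final) for 17 h at 37 C; viability was then read by CellTiter-Glo luminescence after 30 min at room temperature.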
# [5] = biological target: Peroxisome proliferator-activated receptor gamma (Homo sapiens) (UniProt P37231); assay: qHTS assay to identify small molecule agonists of the peroxisome proliferator-activated receptor gamma (PPARg) signaling pathway (AID 743094; active = well fitted activation curve with a large enough effect in the signal ratio in the repeat runs, not every such curve was filed as active; inconclusive = weak or mixed curves, or effect the other way; inactive = no such curve, though single readings can be large or run the other way; the % refers to the signal ratio; for activation: % is set by controls: 0 for no effect and ±100 for the full control effect); details: HEK293H PPARg-UAS-bla, beta-lactamase FRET ratio, 17 h; activation: at 57 µM (top of the series) unless noted
# Procedure, shortened: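 Agonist activity was taken from a beta-lactamase reporter (FRET substrate, 1 h at room temperature) in HEK293H cells carrying a PPARg UAS-bla construct. Compounds in DMSO were incubated 17 h at 37C after a 5 h cell pre-incubation.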
# [6] = qHTS assay for small molecule agonists of the antioxidant response element (ARE) signaling pathway - cell viability counter screen (AID 743203; calls by dose curve; note: nearly all actives have a fitted effect of over 55% in size); details: ARE-bla HepG2 viability, CellTiter-Glo luminescence, 16 h; viability change, negative = cytotoxic: at 73.3 µM (top of the series)
# Procedure, shortened: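 Viability counter screen: CellTiter-Glo luminescence, read after 30 min at room temperature, in ARE-bla HepG2 wells. Compound exposure lasted 16 h at 37C/5% CO2, following a 5 h pre-incubation of the cells after plating.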
# [7] = qHTS assay for small molecule activators of the heat shock response signaling pathway (AID 743210; active = well fitted activation curve with a large enough effect in the signal ratio in the repeat runs, with a control signal flat, not every such curve was filed as active; inconclusive = weak or mixed curves; the % refers to the signal ratio); details: HeLa HSE-bla reporter, beta-lactamase ratio, 5 h; activation: at 62.6 µM (top of the series) unless noted
# Procedure, shortened: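 Activation of heat shock element-controlled beta-lactamase expression is measured in HeLa cells by LiveBLAzer FRET fluorescence, with compound exposure lasting 5 h at 37 C and substrate loading 2.5 h at room temperature.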
# [8] = ratio activity, negative = inhibition: at 62.6 µM (top of the series) unless noted
# Potency is the fitted concentration of half-maximal effect; tags give direction and shape of the fitted curve or compound fluorescence and quenching.
# UniProt P37231, sequence (P37231 whole entry, looked up): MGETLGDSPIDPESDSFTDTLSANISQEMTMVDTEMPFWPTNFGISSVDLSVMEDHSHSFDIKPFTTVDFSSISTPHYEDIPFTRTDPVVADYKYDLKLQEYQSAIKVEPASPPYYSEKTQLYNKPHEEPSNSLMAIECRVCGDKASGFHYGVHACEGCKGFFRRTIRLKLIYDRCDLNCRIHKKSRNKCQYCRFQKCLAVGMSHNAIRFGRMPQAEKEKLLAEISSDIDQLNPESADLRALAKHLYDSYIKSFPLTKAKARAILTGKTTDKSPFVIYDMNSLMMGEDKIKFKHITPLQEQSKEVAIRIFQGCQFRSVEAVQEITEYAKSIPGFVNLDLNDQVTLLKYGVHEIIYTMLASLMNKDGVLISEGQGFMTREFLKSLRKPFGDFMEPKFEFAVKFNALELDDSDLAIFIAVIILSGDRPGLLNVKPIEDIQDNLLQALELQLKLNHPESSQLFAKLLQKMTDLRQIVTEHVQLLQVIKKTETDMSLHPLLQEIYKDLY
# UniProt P35869, sequence (P35869 whole entry, looked up): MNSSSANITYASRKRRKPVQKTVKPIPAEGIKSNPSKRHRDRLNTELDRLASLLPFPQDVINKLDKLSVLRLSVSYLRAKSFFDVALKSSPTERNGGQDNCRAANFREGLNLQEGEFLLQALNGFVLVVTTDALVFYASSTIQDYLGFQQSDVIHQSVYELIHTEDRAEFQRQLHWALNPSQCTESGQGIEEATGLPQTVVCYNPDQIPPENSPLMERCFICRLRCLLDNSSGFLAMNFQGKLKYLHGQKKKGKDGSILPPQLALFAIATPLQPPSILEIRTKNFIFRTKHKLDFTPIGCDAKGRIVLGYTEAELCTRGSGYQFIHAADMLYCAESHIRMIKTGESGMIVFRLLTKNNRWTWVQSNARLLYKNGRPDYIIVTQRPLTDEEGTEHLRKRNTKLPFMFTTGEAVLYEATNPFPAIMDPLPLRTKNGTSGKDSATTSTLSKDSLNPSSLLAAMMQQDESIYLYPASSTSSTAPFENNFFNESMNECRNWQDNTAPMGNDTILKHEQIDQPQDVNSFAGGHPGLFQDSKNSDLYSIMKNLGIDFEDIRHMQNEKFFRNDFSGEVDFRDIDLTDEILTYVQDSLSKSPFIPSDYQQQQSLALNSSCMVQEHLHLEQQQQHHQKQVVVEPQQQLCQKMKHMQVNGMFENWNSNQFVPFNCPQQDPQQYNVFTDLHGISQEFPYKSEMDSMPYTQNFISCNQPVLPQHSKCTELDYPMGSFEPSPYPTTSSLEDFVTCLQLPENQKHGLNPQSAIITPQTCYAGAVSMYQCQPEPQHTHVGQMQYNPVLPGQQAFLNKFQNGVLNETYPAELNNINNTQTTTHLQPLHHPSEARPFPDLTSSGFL
smiles,measurement,setting,value
COc1ccc(-c2cc(C(F)F)nn2-c2ccc(S(N)(=O)=O)cc2)cc1F,Potency,[1],inactive
same,"ratio activity, negative = inhibition",[2]; [8],inconclusive: 6.87%
same,activation,[3],inconclusive: 18.9%
CN(C)c1ccc(C(=N)c2ccc(N(C)C)cc2)cc1,Potency,[1],"inconclusive: 3.4 µM [activator, partial curve] and inconclusive: 2.34 µM [activator, partial curve]"
same,Potency,[2]; [8],inconclusive: 52.9 µM
same,"ratio activity, negative = inhibition",[2]; [8],inconclusive: -2.35%
same,Potency,[4],"inconclusive: 54.3 µM [cytotoxic, single point] and active: 23.6 µM"
O=C(O)c1cccc(Oc2ccccc2)c1,Potency,[1],"inconclusive: 27.3 µM [activator, partial curve, poor fit]"
same,activation,[5],inconclusive: 3.01%
same,Potency,[3],inactive
CCCCOC(=O)CCCCC(=O)OCCCC,Potency,[1],inactive
same,"ratio activity, negative = inhibition",[2]; [8],inconclusive: 9.87%
O=C(Oc1ccccc1)c1ccccc1C(=O)Oc1ccccc1,Potency,[1],"inconclusive: 77 µM [activator, partial curve, poor fit]"
same,activation,[5],inconclusive: -3.49%
same,Potency,[2]; [8],inconclusive: 19.5 µM
same,activation,[3],inconclusive: -24.2%
same,Potency,[6],inactive
same,activation,[7],inconclusive: 7%
CCc1oc2ccccc2c1C(=O)c1cc(Br)c(O)c(Br)c1,Potency,[1],"inconclusive: 37.6 µM [activator, partial curve, poor fit]"
same,Potency,[5],active: 3.01 µM
same,Potency,[2]; [8],"inconclusive: 0.668 µM [rising, full curve]"
same,Potency,[4],"inconclusive: 26.6 µM [cytotoxic, partial curve, poor fit]"
same,Potency,[3],inconclusive: 33.5 µM [single point]
same,Potency,[7],"inconclusive: 10.6 µM [falling, partial curve]"
CC1=NC(C)OC1C (stereo not given),Potency,[1],inactive
same,activation,[5],inconclusive: 7.43%
same,Potency,[2]; [8],"inconclusive: 24.5 µM [activator, full curve, poor fit]"
same,Potency,[3],active: 30.6 µM
O=C1CC[C@@H](C(=O)O)N1,Potency,[1],inactive
same,Potency,[2]; [8],inactive
same,Potency,[3],inactive
O=C1C(O)=C(O)C(=O)C(O)=C1O,Potency,[1],inactive
same,Potency,[2]; [8],inactive
[O-]/[N+](=N\O)c1ccccc1,Potency,[1],inconclusive: 68 µM [activator]
same,"ratio activity, negative = inhibition",[2]; at 62.6 µM (top of the series),inactive: -18.5%
same,"ratio activity, negative = inhibition",[2]; [8],inconclusive: 0.183%
same,activation,[3],inconclusive: -4.87% and inconclusive: 22.1%
same,Potency,[6],"inconclusive: 24.3 µM [rising, full curve, poor fit]"
same,Potency,[7],inconclusive: 57.7 µM [activator]
COc1ccc(-c2coc3cc(O)cc(O)c3c2=O)cc1,Potency,[1],active: 9.77 µM and active: 9.69 µM
same,Potency,[5],"inconclusive: 15.6 µM [inhibitor, full curve] and inconclusive: 21.9 µM [inhibitor, partial curve]"
same,Potency,[2]; [8],"inconclusive: 49 µM [rising, partial curve]"
same,Potency,[6],"inconclusive: 68.6 µM [cytotoxic, single point]"
same,Potency,[7],inactive
Cc1ccc(C)c(N)c1,Potency,[1],"inconclusive: 8.64 µM [activator, full curve, poor fit]"
same,Potency,[5],inactive
same,activation,[3],inconclusive: -1.55%
CCCOC(=O)c1c(Cl)c(Cl)c(Cl)c(Cl)c1C(=O)OCCC,Potency,[1],"inconclusive: 34.4 µM [activator, partial curve]"
same,Potency,[5],inactive
same,"ratio activity, negative = inhibition",[2]; [8],inconclusive: -24.1%
same,Potency,[4],"inconclusive: 0.616 µM [rising, partial curve, poor fit]"
same,activation,[3],inconclusive: 19.2%
same,Potency,[7],inactive
O=C(NC(Cc1cc(=O)[nH]c2ccccc12)C(=O)O)c1ccc(Cl)cc1 (stereo not given),Potency,[1],inactive
same,Potency,[2]; [8],inactive
Brc1nc2ccccc2s1,Potency,[1],active: 30.5 µM and active: 13.7 µM
same,"ratio activity, negative = inhibition",[2]; at 62.6 µM (top of the series),inactive: 6.7%
same,"ratio activity, negative = inhibition",[2]; [8],inconclusive: -32.9%
same,activation,[3],inconclusive: 17.8% and inconclusive: 26.7%
Oc1cccc(O)c1O,Potency,[1],"inconclusive: 13.3 µM [activator, partial curve] and inconclusive: 24.1 µM [activator, partial curve]"
same,Potency,[2]; [8],inactive
COCC(C)O (stereo not given),Potency,[1],"inconclusive: 70.2 µM [activator, partial curve, poor fit]"
same,"ratio activity, negative = inhibition",[2]; at 62.6 µM (top of the series),inactive: -12.9%
same,"ratio activity, negative = inhibition",[2]; [8],inconclusive: -3.47% [at 81.1 µM]
same,Potency,[3],inactive
COc1cc(/C=C/c2ccccc2)oc(=O)c1,Potency,[1],"inconclusive: 0.224 µM [activator, partial curve, poor fit]"
same,activation,[5],inconclusive: 6.4% [at 78.9 µM]
same,Potency,[3],"inconclusive: 31.7 µM [rising, partial curve]"
Nc1nc2ccc(OC(F)(F)F)cc2s1,Potency,[1],active: 10.6 µM
same,Potency,[5],inactive
same,Potency,[7],inactive
CC(C)(c1cc(Br)c(OCC(Br)CBr)c(Br)c1)c1cc(Br)c(OCC(Br)CBr)c(Br)c1 (stereo not given),Potency,[1],inactive
same,Potency,[2]; [8],inactive
CC(C)c1ccc2cc(C(C)C)ccc2c1,Potency,[1],"inconclusive: 27.3 µM [activator, partial curve, poor fit]"
same,"ratio activity, negative = inhibition",[2]; [8],inconclusive: 24.5%
